From the supplement of paper PMC4723716 come the findings set out here.

± gives the uncertainty stated by the source. The full ranking holds about 9,900 compounds; the median of “viability index relative to DMSO control” is about 1, and the lowest 2% start at about 0.85. This is one part of the list.

This assay relates to Plasmodium falciparum NF54 stage V gametocytes. The experiment in a line: viability index relative to DMSO control (fraction); higher = less gametocyte killing. The settings on record: 2.5 µM, incubation time: 72 h. How it is done:
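Broad DOS informer set and blood-stage-active DOS compounds screened in duplicate at 2.5 µM against P. falciparum NF54 stage V gametocytes with the serum-free one-step SaLSSA (1536-well): 72 h at 37 °C under low oxygen, then saponin lysis and MitoTracker Red CMXRos staining, with high-content imaging. Viability index = viable-object count divided by the plate mean of DMSO wells (0 = killed, about 1 = inactive).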

The mark [1] stands for this setting: library set: Broad Institute DOS.

With `CC(C)CC#Cc1ccc([C@H]2[C@H](CO)N3C(=O)CN(C(=O)c4cccc(F)c4)C[C@@H]23)cc1`, the viability index under setting [1] came out at 1.05 ± 0.075.
With `O=C(CC1CC1)N1CC(=O)N2[C@H](CO)[C@@H](c3ccc(C#Cc4cccc(F)c4)cc3)[C@H]2C1`, the viability index under setting [1] came out at 0.941 ± 0.03.
In turn, `CN(C)CC(=O)N1[C@@H](CO)[C@H](c2ccccc2)C12CN(C(=O)c1ccc(F)cc1)C2` returned a viability index under setting [1] of 1.094 ± 0.0026.
For `COCC(=O)N1C[C@H]2[C@@H](c3ccccc31)[C@H](CO)N2Cc1cc(F)ccc1F`, under setting [1], the viability index worked out at 0.97 ± 0.028.
Regarding `FC(F)(F)c1ccccc1CN1[C@@H]2CNC[C@H]1[C@H]2c1ccc(-c2ccncc2)cc1`, the viability index under setting [1] was 1.02 ± 0.021.
`OC[C@@H]1[C@H](c2ccc(Br)cc2)[C@@H]2CNCCCCN12` came in with a viability index under setting [1] of 0.997 ± 0.012.
Under setting [1], `C[C@H]1CN([C@@H](C)CO)C(=O)CCCn2nncc2CO[C@H]1CN(C)S(=O)(=O)c1ccc2c(c1)OCCCO2` gave a viability index of 1.07 ± 0.073.
`CCC(=O)N1CC[C@H]2[C@H](CO)Nc3ccc(C#Cc4ccccc4F)cc3[C@H]21` gave a viability index under setting [1] of 1.03 ± 0.027.
On the same count and under the same terms, to `C[C@H]1CN([C@@H](C)CO)C(=O)c2cccc(NS(=O)(=O)c3ccc(F)cc3)c2O[C@H]1CN(C)Cc1ccc(Cl)c(Cl)c1` belongs 1.07 ± 0.021; to `COc1ccc2c3c([C@H](CO)N(Cc4ccccc4)C[C@]33CN(C3)C(=O)c3ccccc3F)n(C)c2c1`, 0.965 ± 0.049.
As to `C[C@H]1CN([C@@H](C)CO)C(=O)c2cc(-c3ccc(C#N)cc3)cnc2O[C@@H]1CN(C)Cc1cccnc1`, the viability index under setting [1] amounted to 1.007 ± 0.008.
On the same count and under the same terms, to `CC(C)C#Cc1ccc([C@@H]2[C@H]3CN(C(=O)Cc4ccccc4)CC(=O)N3[C@H]2CO)cc1` belongs 0.864 ± 0.047; to `C[C@@H]1CN([C@H](C)CO)C(=O)c2cc(/C=C/c3ccccc3)cnc2O[C@H]1CN(C)S(=O)(=O)c1ccccc1F`, 1.18 ± 0.067; to `C[C@@H]1CN([C@H](C)CO)C(=O)CCCn2cc(nn2)CO[C@@H]1CN(C)Cc1ccccc1`, 0.986 ± 0.035.
`CO[C@@H](CN(C)S(=O)(=O)c1ccc(F)cc1)[C@H](C)CN(Cc1ccccc1Cl)[C@H](C)CO`: the viability index under setting [1] turned out to be 1.05 ± 0.033.
Still for that read-out and setting: as for `COc1cccc(NC(=O)C[C@H]2CC[C@H]3[C@H](COc4ccc(NS(=O)(=O)c5cccc(F)c5)cc4C(=O)N3C)O2)c1`, the figure is 1.08 ± 0.045; as for `C[C@@H]1CN([C@H](C)CO)C(=O)c2ccccc2-c2ccccc2CO[C@@H]1CN(C)Cc1cccc(C(=O)O)c1`, 0.958 ± 0.11; as for `O=C(C[C@@H]1C[C@@H]2c3cc(NC(=O)CC4CC4)ccc3O[C@@H]2[C@@H](CO)O1)NCC1CC1`, 1.06 ± 0.033.
`C[C@@H]1CN([C@H](C)CO)C(=O)c2cc(NC(=O)CCC(F)(F)F)ccc2O[C@@H](C)CCCCO[C@H]1CN(C)C(=O)c1ccncc1` showed a viability index under setting [1] of 1.06 ± 0.044.
`O=C(C[C@@H]1CC[C@H]2[C@@H](COC[C@@H](O)CN2Cc2ccc(F)cc2)O1)NCCc1ccccc1` registered a viability index under setting [1] of 1 ± 0.082.
With `CC[C@H]1C/C=C\CCNC(=O)CCC(=O)N1`, the viability index under setting [1] came out at 1.01 ± 0.077.
The same measure, in the same setting: to `C/C=C/c1ccc2c(c1)O[C@H](CN(C)C(=O)Nc1ccc(OC)cc1)[C@@H](C)CN([C@H](C)CO)S2(=O)=O` belongs 1.05 ± 0.042; to `O=C1N[C@@H](c2ccccc2)COCc2cn(nn2)CC[C@H]1Cc1ccc(C(F)(F)F)cc1`, 0.916 ± 0.072.
`O=C(c1cccc(F)c1)N1CCCCN2[C@H](C1)[C@H](c1ccc(C#CC3(O)CCCC3)cc1)[C@@H]2CO`: the viability index under setting [1] came to 1.01 ± 0.028.
With `COCc1cn(CC[C@H]2CC[C@@H](NC(=O)Nc3c(C)noc3C)[C@H](CO)O2)nn1`, under setting [1], the viability index was determined as 1.03 ± 0.051.
The same measure, in the same setting: to `CO[C@H]1CN(C)C(=O)c2ccc(NC(=O)c3cccc(F)c3)cc2OC[C@@H](C)NC[C@@H]1C` belongs 1.06 ± 0.047; to `C[C@@H](NC(=O)C[C@H]1CC[C@@H]2[C@H](COC[C@H](O)CN2C(=O)Nc2cccc(Cl)c2)O1)c1ccccc1`, 1.07 ± 0.012.
As for `COc1ccccc1CNC(=O)C[C@H]1C=C[C@@H](NC(=O)CC2CC2)[C@H](CO)O1`, the viability index under setting [1] is 1.06 ± 0.046.
Where the note is “library set: Broad Institute Blood Stage”, `COc1ccccc1S(=O)(=O)N(C)C[C@@H]1Oc2cc(/C=C/c3ccccc3)ccc2S(=O)(=O)N([C@H](C)CO)C[C@H]1C` returned a viability index of 0.808 ± 0.032.
With `O=C(NCC[C@@H]1CC[C@@H](NS(=O)(=O)Cc2ccccc2)[C@H](CO)O1)C1CCCCC1`, the viability index under setting [1] was 0.941 ± 0.1.
In turn, `C[C@@H]1CCCCO[C@@H](CN(C)S(=O)(=O)c2cn(C)cn2)[C@@H](C)CN([C@@H](C)CO)C(=O)c2cc(N(C)C)ccc2O1` came in with a viability index under setting [1] of 1.04 ± 0.026.
As for `C[C@H](NC(=O)C[C@@H]1CC[C@H]2[C@@H](COC[C@H](O)CN2C(=O)Nc2cccc(Cl)c2)O1)c1ccccc1`, the viability index under setting [1] turned out to be 1.1 ± 0.046.
On to `CO[C@H]1CC[C@H]2CCN(C)C(=O)CC3(CCCCC3)CN(C)C(=O)c3cccc(C#N)c3OC[C@H]1O2`, for which the viability index under setting [1] was 1.03 ± 0.033.
In turn, `CCN1CC(=O)N2[C@@H](CO)[C@@H](c3ccc(Br)cc3)[C@@H]2C1` yielded a viability index under setting [1] of 1.04 ± 0.013.
In turn, `CO[C@H]1CC[C@H]2CCOc3c(C#N)cccc3C(=O)N(C)C[C@H](c3ccccc3)CC(=O)N(C)C[C@@H]1O2` came in with a viability index under setting [1] of 1.05 ± 0.028.
Take `Cc1ccccc1-c1ccc2c(c1)O[C@@H](CN(C)C(=O)Nc1ccc(C(F)(F)F)cc1)[C@H](C)CN([C@H](C)CO)S2(=O)=O`: under setting [1], the viability index was 1 ± 0.058.
`C[C@H](CO)N1C[C@H](C)[C@H](CN(C)C(=O)Cc2cccnc2)Oc2cc(C#Cc3ccccc3F)ccc2S1(=O)=O` came in with a viability index under setting [1] of 0.891 ± 0.042.
The compound `CO[C@H](CN(C)Cc1ccc(-c2ccccn2)cc1)[C@@H](C)CN(C(=O)Nc1ccc(F)cc1)[C@@H](C)CO` gave a viability index under setting [1] of 0.996 ± 0.024.
Under setting [1], `Cc1noc(C)c1S(=O)(=O)Nc1ccc2c(c1)C(=O)N([C@@H](C)CO)C[C@H](C)[C@H](CN(C)C(=O)Nc1cccc3ccccc13)OCCCC[C@H](C)O2` showed a viability index of 1.01 ± 0.088.
The same measure, in the same setting: as for `CCCNC(=O)N1[C@H](CO)[C@@H](c2ccc(-c3ccccc3F)cc2)[C@@H]1C#N`, the figure is 1.12 ± 0.093; as for `Cc1noc(C)c1S(=O)(=O)N(C)C[C@H]1OCc2cn(nn2)CCCC(=O)N([C@H](C)CO)C[C@@H]1C`, 0.952 ± 0.014.
On to `OC[C@H]1[C@H](c2ccc(C#Cc3ccccc3F)cc2)[C@H]2CN(CC3CCOCC3)CCCCN21`, for which the viability index under setting [1] came out at 0.935 ± 0.046.
Turning to `COc1ccc2c3c([C@@H](CO)N(CC4CC4)C[C@]33CCN(CC3)C(=O)NC3CCCC3)n(C)c2c1`, under setting [1], the viability index turned out to be 0.95 ± 0.045.
Same read-out and setting: as for `CC(C)NC(=O)N[C@@H]1CC[C@@H](CC(=O)NCCCN(C)C)O[C@H]1CO`, the figure is 0.982 ± 0.024; as for `COCC(=O)Nc1ccc2c(c1)[C@H]1C[C@@H](CC(=O)NCc3ccc4c(c3)OCO4)O[C@H](CO)[C@H]1O2`, 1.08 ± 0.038; as for `COc1ccccc1-c1ccccc1[C@H]1[C@@H](CO)N(C(=O)C2CCOCC2)[C@H]1C#N`, 1.15 ± 0.061.
